This note sets out measurements from ChEMBL document CHEMBL4888484, “Replenishing the malaria drug discovery pipeline: Screening and hit evaluation of the MMV Hit Generation Library 1 (HGL1) against asexual blood stage Plasmodium falciparum ,using a nano luciferase reporter read-out” (2022).

In all, about 150,000 compounds went through this assay and about 540 (0.36%) showed an effect of 50% or more. Some of the results follow.

The experiment has as its system Plasmodium falciparum. Description: Primary screen in NF54 nanoGlo assay, in single point, at 2uM, 72h; a lower Z score goes with more inhibition. To be noted: timepoint 72 hour. The format is functional, Erythrocyte.
Broadly, the % Inhibition is the relative decrease from the control value, in per cent. On to `COC[C@H](C)NCCc1ccc(C)cc1`, for which the “% Inhibition” value is listed as -4% and the Z score was determined as 0.73.

In the case of `CC1CCCCC1N1CCN(C(=O)COc2ccc(Br)cc2)CC1` (stereo not drawn), the “% Inhibition” value is recorded as 29% and the Z score is on record as -0.9.

For `Clc1cccnc1N1CCC[C@H]1c1cccnc1`, the “% Inhibition” value is -4% and the Z score came out at 0.63.

On to `COc1cc(C(=O)Nc2ccc3[nH]c(=O)oc3c2)cc(OC)c1OC`, for which the “% Inhibition” value is -10% and the Z score was 1.52.

`O=C1CN=C(c2ccccc2)c2ccccc2N1Cc1ccc(C(F)(F)F)cc1`: the “% Inhibition” value is listed as -2% and the Z score was found to be 0.26.

In the case of `Cc1onc(-c2cccnc2)c1C(=O)N1CCC2(CC1)OCCO2`, the “% Inhibition” value is listed as 11% and the Z score is on record as -1.99.

In the case of `Cc1ccc(C(=O)Nc2nccnc2C(=O)N2CCC3(CC2)OCCO3)cc1`, the “% Inhibition” value is recorded as -9% and the Z score came out at 1.32.

`CCCc1nc(C)cc(N2CCCN3CCC[C@H]3C2)n1`: the “% Inhibition” value was found to be 5% and the Z score is on record as -0.98.

Take `Cc1ccn2c(CN3CCCC4(C3)OCCO4)cnc2c1`: the “% Inhibition” value is -6% and the Z score came to 0.47.

Consider `O[C@H]1C[C@@H]2CN(Cc3nccs3)C[C@@H]2C[C@@H]1O`, for which the “% Inhibition” value is on record as -16% and the Z score was determined as 1.46.

Consider `O=C(c1cnn2c1CCCC2)N1C[C@H](c2ccccc2)[C@@H]2[C@H]1C1CCN2CC1`, for which the “% Inhibition” value was -1% and the Z score amounted to 0.19.

With `Cc1n[nH]c(CN2C[C@H]3CCC[C@@H](C3)C2)c1Cl`, the “% Inhibition” value is on record as -3% and the Z score was found to be 0.44.

For the compound `Cc1ccc(Cn2c(=O)oc3ccc(C(=O)NC4CCCCCC4)cc32)cc1`, the “% Inhibition” value turned out to be 1% and the Z score is -0.13.

With `C[C@H](NCCc1c[nH]c2ccccc12)c1nccs1`, the “% Inhibition” value turned out to be 7% and the Z score is -0.76.

On to `CN(C)c1cc(NC(=O)N2CC3CCC2CN3)ncc1Br` (stereo not drawn), for which the “% Inhibition” value was -5% and the Z score was determined as 0.66.

As for `Cc1ccc([C@H]2CN(C(=O)c3cncc(C)c3)[C@@H]3C4CCN(CC4)[C@H]23)cc1`, the “% Inhibition” value is listed as 11% and the Z score was -1.39.

Turning to `CC(O)C(=O)NC(c1ccc(Cl)cc1)C1CC2CCC(C1)N2C` (stereo not drawn), the “% Inhibition” value is recorded as 1% and the Z score is recorded as -0.16.

On to `Cc1cc(C(=O)O[C@@H](C)C(=O)NC(=O)NCC(F)(F)F)c(C)n1C(C)C`, for which the “% Inhibition” value was -10% and the Z score came out at 1.03.

Regarding `CCOc1cc(Cl)ccc1C(=O)NC[C@H]1CN2CCN1CC2`, the “% Inhibition” value is reported as -2% and the Z score amounted to 0.3.

On to `CCc1c(C(=O)NC[C@@H]2CCCN3CCCC[C@H]23)c(=O)cc(C)n1Cc1ccccc1OC`, for which the “% Inhibition” value was -14% and the Z score stood at 1.98.

Turning to `Cc1ccc(CNC(=O)Nc2ccc3oc(=O)n(C)c3c2)c(C)c1`, the “% Inhibition” value was -8% and the Z score was determined as 1.19.

Consider `Cc1nsc(N2CCNCC2)c1C#N`, for which the “% Inhibition” value was found to be 5% and the Z score was -0.52.

Regarding `CC(=O)c1ccc(NC(=O)N2CCN3CCC2CC3)cc1`, the “% Inhibition” value was 0% and the Z score is reported as -0.01.

On to `Cc1nc[nH]c1CN1C[C@H]2CC[C@@H](C1)N(C(=O)Cc1ccc3c(c1)OCO3)C2`, for which the “% Inhibition” value was -9% and the Z score was found to be 1.69.
